Data from article PMC6497308.
No constants are given. Whether binding was seen depends on the method and setting. Some binding calls cover weakened binding; strength is not graded here. Sequences can lack the tags named with a protein.

Assays:
[1] = molecular target: Na/K-ATPase of ATP1A3 and ATP1B2 patch I region 2+3+4 triple mutant (UniProt P13637); experiment: binding of added retinoschisin to transfected cells, Western blot of washed cells; HEK293 cells 48 h after transfection incubated with recombinant retinoschisin (or RS1-R141H) for 1 h, intensive washing, Western blot of cell pellet lysates with anti-retinoschisin
[2] = molecular target: Na/K-ATPase of ATP1A3 and ATP1B2 patch I region 3 mutant (UniProt P13637); experiment: as above
[3] = molecular target: Na/K-ATPase of ATP1A3 and glycosylation mutant ATP1B2-N118Q (UniProt P13637); experiment: as above
[4] = molecular target: Na/K-ATPase of ATP1A3 and glycosylation mutant ATP1B2-N153Q (UniProt P13637); experiment: as above
[5] = molecular target: Na/K-ATPase of ATP1A3 and ATP1B2 patch I region 1+2+3+4 quadruple mutant (UniProt P13637); experiment: as above
[6] = molecular target: Na/K-ATPase of ATP1A3 and ATP1B2 patch I region 1+2+4 triple mutant (UniProt P13637); experiment: as above
[7] = molecular target: Na/K-ATPase of ATP1A3 and ATP1B2 patch II region 1 mutant (UniProt P13637); experiment: as above
[8] = molecular target: Na/K-ATPase of ATP1A3 and ATP1B2 patch I region 1+3+4 triple mutant (UniProt P13637); experiment: as above
[9] = molecular target: Na/K-ATPase of ATP1A3 and ATP1B2 patch I region 1+4 double mutant (UniProt P13637); experiment: as above
[10] = molecular target: Na/K-ATPase of ATP1A3 and ATP1B2 patch I region 2+4 double mutant (UniProt P13637); experiment: as above
[11] = molecular target: ATP1A3 expressed alone in HEK293 (cells not expressing ATP1B2) (UniProt P13637); experiment: as above
[12] = molecular target: Na/K-ATPase of ATP1A3 and ATP1B2 patch I region 4 mutant (UniProt P13637); experiment: as above
[13] = molecular target: Na/K-ATPase of ATP1A3 and ATP1B2 patch I region 2 mutant (UniProt P13637); experiment: as above
[14] = molecular target: Na/K-ATPase of ATP1A3 and ATP1B2 patch I region 3+4 double mutant (UniProt P13637); experiment: as above
[15] = molecular target: Na/K-ATPase of ATP1A3 and ATP1B2 patch II region 3 mutant (UniProt P13637); experiment: as above
[16] = molecular target: Na/K-ATPase of ATP1A3 and glycosylation mutant ATP1B2-N197Q (UniProt P13637); experiment: as above
[17] = molecular target: Na/K-ATPase of ATP1A3 and ATP1B2-T240S (UniProt P13637); experiment: as above
[18] = molecular target: Na/K-ATPase of ATP1A3 and ATP1B2 patch I region 1+2+3 triple mutant (UniProt P13637); experiment: as above
[19] = molecular target: Na/K-ATPase of ATP1A3 and ATP1B2-T240A (UniProt P13637); experiment: as above
[20] = molecular target: Na/K-ATPase of ATP1A3 and glycosylation mutant ATP1B2-N96Q (UniProt P13637); experiment: as above
[21] = molecular target: Na/K-ATPase of ATP1A3 and ATP1B2-T240L (ATP1B2 patch II, region 4 mutant) (UniProt P13637); experiment: as above
[22] = molecular target: Na/K-ATPase of ATP1A3 and ATP1B2 patch I region 1 mutant (UniProt P13637); experiment: as above
[23] = molecular target: Na/K-ATPase of ATP1A3 and ATP1B2 patch II regions 1+3 double mutant (UniProt P13637); experiment: as above
[24] = molecular target: Na/K-ATPase of ATP1A3 and glycosylation mutant ATP1B2-N193Q (UniProt P13637); experiment: as above
[25] = molecular target: Na/K-ATPase of ATP1A3 and glycosylation mutant ATP1B2-N250Q (UniProt P13637); experiment: as above
[26] = molecular target: Na/K-ATPase of ATP1A3 and glycosylation mutant ATP1B2-N159Q (UniProt P13637); experiment: as above
[27] = molecular target: retinal Na/K-ATPase (ATP1A3 and ATP1B2) from transfected HEK293, enzymatically deglycosylated with PNGase F (UniProt P13637); experiment: binding of added retinoschisin to enriched membrane fractions, Western blot; enriched plasma membrane fractions (PNGase F or control buffer, 37°C, 18 h) incubated with recombinant retinoschisin for 1 h, intensive washing, centrifugation at 16,000xg for 15 min at 4°C, Western blot

Measured: binding

B1: retinoschisin (protein, UniProt O15537 24-224)
chain: STEDEGEDPWYQKACKCDCQGGPNALWSAGATSLDCIPECPYHKPLGFESGEVTPDQITCSNPEQYVGWYSSWTANKARLNSQGFGCAWLSKFQDSSQWLQIDLKEIKVISGILTQGRCDIDEWMTKYSVQYRTDERLNWIYYKDQTGNNRVFYGNSDRTSTVQNLLRPPIISRFIRLIPLGWHVRIAIRMELLECVSKCA
binds: [2] | [3] | [4] | [7] | [9] | [10] | [12] | [13] | [15] | [16] | [17] | [18] | [20] | [22] | [23] | [24] | [25] | [26] | [27]
no binding: [1] | [5] | [6] | [8] | [11] | [14] | [19] | [21]

B2: retinoschisin mutant RS1-R141H (protein, UniProt O15537 24-224)
chain: STEDEGEDPWYQKACKCDCQGGPNALWSAGATSLDCIPECPYHKPLGFESGEVTPDQITCSNPEQYVGWYSSWTANKARLNSQGFGCAWLSKFQDSSQWLQIDLKEIKVISGILTQGHCDIDEWMTKYSVQYRTDERLNWIYYKDQTGNNRVFYGNSDRTSTVQNLLRPPIISRFIRLIPLGWHVRIAIRMELLECVSKCA
no binding: [11]
